# Hit rate of the full screen: of about 130,000 compounds, about 1,200 (0.92%) were called active. This list was built around the results that the source calls inconclusive (neither active nor inactive); the mix of calls is not that of the screen. Calls follow the shape of the dose curve; as a rule, active = well fitted cell-killing curve with a large enough effect; inconclusive = small, poorly fitted or top-dose-only effect; inactive = no such curve, though single readings can be large or run the other way. Where the call is inconclusive, the potency comes from a doubtful curve fit.
# Assay: qHTS Screen for Compounds that Selectively Target Cancer Cells with p53 Mutations: Cytotoxicity of p53ts Cells at the Permissive Temperature; also: nearly all actives have a fitted effect of over 55% in size;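 as to activity change, negative = cytotoxicity: 0% = DMSO and -100% = full killing by reference compound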
# Conditions: H1299-p53A138V at 32C, ATP luminescence viability, 24 h; activity change, negative = cytotoxicity: at 46.1 µM (top of the series)
# Summary of the method: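 H1299-p53 A138V cells (temperature-sensitive p53) exposed 24 h to up to 46 uM compound at 32C, where p53 is wild-type in conformation. Viability read as ATP luminescence and normalised to DMSO and 100 uM tamoxifen. AC50 fitted with the Hill equation.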
# Potency is read from the fitted curve at half-maximal effect; tags tell the direction and shape of the fitted curve.
SMILES,Potency,"activity change, negative = cytotoxicity"
COc1cccc(CNC(=O)c2cc3oc4ccccc4c3n2C)c1OC,"inconclusive: 0.501 µM [cytotoxic, full curve, poor fit]",–
O=C(Nc1cccc(-c2cn3ccsc3n2)c1)c1ccccc1,"inconclusive: 31.6 µM [cytotoxic, single point]",–
CN(C)c1ccc(NC(=O)N2CCOCC2)cc1,"inconclusive: 25.1 µM [cytotoxic, partial curve]",–
COC(=O)CNc1c(-c2ccccn2)nc2ccc(Br)cn12,active: 15.8 µM,–
C=CC(C1=CC(=O)C(OC)=C(OC)C1=O)c1ccccc1 (centres undefined),"inconclusive: 31.6 µM [cytotoxic, single point]",–
Cc1ccc(C)c(-c2ccc(=O)n(Cc3c(F)cccc3Cl)n2)c1,"inconclusive: 12.6 µM [cytotoxic, partial curve, poor fit]",–
CCCn1c(-c2ccc(F)cc2)nc2c(N3CCN(C)CC3)nc(C)nc21,inactive,–
O=C(/C=C/c1ccco1)NC(=S)NNC(=O)c1ccco1,"inconclusive: 1.12 µM [cytotoxic, full curve]",–
CCCCCCCCCCCCCCC[C@@H](O)[C@@H](N)CO,"inconclusive: 31.6 µM [cytotoxic, single point]",–
CC(C)Cn1c(N)c(C(=O)NCc2cccs2)c2nc3ccccc3nc21,"inconclusive: 31.6 µM [cytotoxic, single point]",–
CN1C(=O)c2ccccc2Sc2ccc(NC(=O)c3ccc(C(F)(F)F)cc3)cc21,inactive,–
CC(C)(C)c1ccc(Cn2nnc3c(=O)[nH]c(C4CCN(C(=O)Cc5cccs5)CC4)nc32)cc1,"inconclusive: 31.6 µM [cytotoxic, single point]",–
O=C(Nc1nnc(SCC(=O)N2CCCCC2)s1)c1cccs1,"inconclusive: 31.6 µM [cytotoxic, single point]",–
Cc1cccc(CNc2ccnc(-c3ccc(N(C)C)cc3)n2)c1,"inconclusive: 25.1 µM [cytotoxic, single point]",–
CCOC(=O)c1ccc(NCc2nc3ccccc3[nH]2)cc1,inactive,–
O=C1C(=O)N(Cc2ccc(Cl)c(Cl)c2)c2ccccc21,"inconclusive: 15.8 µM [cytotoxic, partial curve]",–
CO[C@@H]1COC(=O)C/C=C\[C@@H](C)COC(=O)[C@H](Cc2ccccc2)NC(=O)C/C=C\[C@H]1C,–,inactive: 8.89% [at 9.22 µM]
Cc1cc(NC(=O)c2ccccc2)sc1C,"inconclusive: 12.6 µM [cytotoxic, partial curve]",–
CCCCN(C)C(=O)CSc1nc2ccccc2nc1Cc1ccc(C)cc1,inactive,–
COc1ccc(-c2c[n+]3c(n2-c2ccccc2)CCCCC3)cc1,"inconclusive: 0.0631 µM [cytotoxic, full curve, poor fit]",–
CCOc1ccc(S(=O)(=O)Nc2ccc3oc4c(c3c2)CC(C)CC4)cc1 (centres undefined),"inconclusive: 35.5 µM [cytotoxic, single point]",–
COc1cccc(CNS(=O)(=O)c2c(C(=O)N3CCC(C)CC3)c(C)n(C)c2C)c1,inactive,–

SMILES,Potency,"activity change, negative = cytotoxicity"
CCC(C)NC(=O)Cn1c(=O)n(Cc2ccc(C(=O)NCc3ccc(C)cc3)cc2)c(=O)c2ccccc21 (centres undefined),"inconclusive: 31.6 µM [cytotoxic, single point]",–
COc1ccc(-c2noc(-c3ccccc3F)n2)cc1,"inconclusive: 12.6 µM [cytotoxic, single point]",–
Cc1cc(C(F)F)n2ncc(C(=O)NC3CCCCCC3)c2n1,inactive,–
Nc1nc2nccc(-c3ccc(Cl)cc3)n2n1,"inconclusive: 12.6 µM [cytotoxic, partial curve]",–
CCOc1ccccc1NC(=O)c1cc(S(=O)(=O)N2CCOCC2)cn1C,inactive,–
CCC(C)NC(=O)c1ccc2c(c1)nc1n2CCCCC1 (centres undefined),"inconclusive: 12.6 µM [cytotoxic, partial curve]",–
Cn1c(C(=O)Nc2ccc3c(c2)OCO3)cc2sccc21,"inconclusive: 10 µM [cytotoxic, partial curve]",–
CCCOC(=O)c1ccc(Oc2c(-c3ccc(OCC)cc3O)n[nH]c2C)cc1,"inconclusive: 31.6 µM [cytotoxic, single point]",–
CCc1ccccc1N1CC(c2nc3ccccc3n2CCOc2ccc(Cl)c(C)c2)CC1=O (centres undefined),"inconclusive: 31.6 µM [cytotoxic, single point]",–
O=C1[C@@H]2[C@H]3[C@H](O)[C@H](O)C/C(=N/OCc4ccccc4)[C@H]3CC[C@H]2C(=O)N1c1ccc(F)cc1F,–,inactive: -0.0516% [at 9.22 µM]
CC1=C(/C=C/C(C)=C/C=C/C(C)=C/C(=O)Nc2ccc(O)cc2)C(C)(C)CCC1,"inconclusive: 25.1 µM [cytotoxic, single point]",–
COc1ccc(C(=O)Nc2nc(C)c(C(=O)N(C)C)s2)cc1OC,active: 12.6 µM,–
CCC(=O)Nc1cccc(NC(=O)c2ccc3c(c2)OCCO3)c1,"inconclusive: 10 µM [cytotoxic, partial curve]",–
CCC(Oc1ccccc1)C(=O)N1CCN(Cc2cc(=O)n3nc(-c4cccc(C)c4)sc3n2)CC1 (centres undefined),inactive,–
COc1cccc(-c2ccc3c(N)c(C(=O)c4ccc(F)cc4)sc3n2)c1,"inconclusive: 25.1 µM [cytotoxic, single point]",–
NC(=O)c1ccc(-c2nc(-c3ccc4c(c3)OCO4)c(-c3ccccn3)[nH]2)cc1,inactive,–
COc1ccc(/C=C/C(=O)c2cccs2)cc1OC,active: 12.6 µM,–
Cc1ccc2[nH]c(=O)c3cc(C(=O)NCc4cccc(Cl)c4)sc3c2c1,inactive,–
Nc1ncnc2c1nc(Br)n2C1OC(CO)C(O)C1O (centres undefined),"inconclusive: 5.01 µM [cytotoxic, partial curve]",–
CCOc1ccc(C(=O)NCCc2csc(-c3cccc(C)c3)n2)cc1,"inconclusive: 28.2 µM [cytotoxic, single point]",–
CC1CC(C)(C)Nc2ccc(OC(=O)c3ccco3)cc21 (centres undefined),active: 15.8 µM,–
Fc1c(F)c(C(F)(F)F)c(F)c(F)c1N1CCN(c2ccc3nnc(C(F)(F)F)n3n2)CC1,"inconclusive: 12.6 µM [cytotoxic, partial curve]",–

# — PubChem BioAssay AID924 (National Center for Advancing Translational Sciences (NCATS), 2007)
